Among all 150,000 compounds or so, about 540 (0.36%) showed an effect of 50% or more. The list shows a part of the results.
These compounds were tested on Plasmodium falciparum (assay: Primary screen in NF54 nanoGlo assay, in single point, at 2uM, 72h; a lower Z score goes with more inhibition). Conditions: timepoint 72 hour.
Type: functional, Erythrocyte
For `O=C(C1CN(c2ncc(C(F)(F)F)cc2Cl)C1)N1CCCC1`, the “% Inhibition” value was 38% and the Z score was -4.9. In the case of `Cc1cc(NC(=O)CNc2ccc(-c3ccccc3)cc2)on1`, the “% Inhibition” value is reported as -6% and the Z score is reported as 0.81. With `N/C(=N\O)c1nnn2c1CO[C@H](c1ccccc1Cl)C2` the “% Inhibition” value was 11% and the Z score was -1.25. `COC(=O)N(C)CC(=O)Nc1ccc2c(c1)OC1(CCCCC1)O2` was tested, and the “% Inhibition” value was 3% and the Z score was -0.62. `c1ccc(COc2cccc(-c3nc4c([nH]3)CCNC4)c2)cc1` was tested, and the “% Inhibition” value was 4% and the Z score was -0.7. For `COc1ccc(-c2noc(-c3cc4n(n3)C[C@@H](c3ccc(F)cc3)OC4)n2)cc1OC`, the “% Inhibition” value was 28% and the Z score was -3.23. `COc1ccc(OCC(=O)Nc2noc(-c3ccccc3)n2)cc1` was tested, and the “% Inhibition” value was 9% and the Z score was -1.03. With `COc1ccncc1NC(=O)c1ccc2ccccc2n1` the “% Inhibition” value was -17% and the Z score was 2.18. `O=C(Cc1csc(-c2ccccc2)n1)N1CCC(O)(c2ccccn2)CC1` was tested, and the “% Inhibition” value was -7% and the Z score was 1.07. With `COc1cccc([C@H](CNS(C)(=O)=O)OC)c1` the “% Inhibition” value was -10% and the Z score was 1.98. For `Cc1cc(NC(=O)N2CC[C@@H]3OCC(=O)N[C@H]3C2)nn1C1CCCCC1`, the “% Inhibition” value was -6% and the Z score was 1.17. With `COc1ccc(CCN2CN(S(=O)(=O)c3ccc(C)c(C)c3)c3nc4ccccc4nc32)cc1` the “% Inhibition” value was 3% and the Z score was -0.48. For `O=C(CCc1ccc(F)cc1F)NCC[C@H]1CCOC1`, the “% Inhibition” value was -7% and the Z score was 1.16. With `CC(=O)Nc1c[nH]nc1[C@H]1CCCN(c2nc(C(F)(F)F)cs2)C1` the “% Inhibition” value was -6% and the Z score was 0.66. In the case of `Cc1ccc(C(=O)c2nocc2C(=O)c2ccccc2)cc1`, the “% Inhibition” value is reported as -39% and the Z score is reported as 4.56. `CCOC(=O)c1cn(Cc2ccc(Cl)cc2)c2nc(C)ccc2c1=O` was tested, and the “% Inhibition” value was -29% and the Z score was 3.13. For `CCOC1CC(CC(=O)Nc2cc(Cl)ccc2-c2nnn[nH]2)C1` (stereo unspecified), the “% Inhibition” value was -4% and the Z score was 0.74. `c1ccc(-n2nnnc2NC2CCCCCCC2)cc1` was tested, and the “% Inhibition” value was 4% and the Z score was -0.68. `Cc1ccc2c(=O)c(C(=O)c3ccc(F)cc3)cn(Cc3ccccc3C)c2n1` was tested, and the “% Inhibition” value was -5% and the Z score was 0.65. For `CC(C(=O)O)c1cccc(NC(=O)C2CCCOC2)c1` (stereo unspecified), the “% Inhibition” value was -10% and the Z score was 1.52. For `CC(=O)Nc1ccc(-c2noc([C@H]3CCCN(C(=O)c4ccc(C(C)(C)C)cc4)C3)n2)cc1`, the “% Inhibition” value was -5% and the Z score was 0.62. With `COc1ccc([C@H](C)NC(=O)c2c(C)noc2-c2ccccc2Cl)cc1` the “% Inhibition” value was -5% and the Z score was 0.73. With `COc1cccc(-c2nc(C)c(C(=O)Nc3cccc4[nH]ccc34)s2)c1` the “% Inhibition” value was -1% and the Z score was 0.1. For `O[C@H]1Cc2ccccc2C12CCN(Cc1nc(-c3ccncc3)no1)CC2`, the “% Inhibition” value was -7% and the Z score was 0.85. For `C[C@H]1CN(C(=O)c2ccc(Cl)cc2)C[C@]1(O)C1CC1`, the “% Inhibition” value was -8% and the Z score was 1.32. For `Cc1ccc(S(=O)(=O)N2CCc3c(c4ccccc4n3CC3CC3)C2)cc1`, the “% Inhibition” value was -9% and the Z score was 1.23. For `Cc1ccc(CN2CCC[C@@]3(CO)CN(c4ncccc4C(N)=O)CC[C@H]23)o1`, the “% Inhibition” value was -7% and the Z score was 0.82. For `CN(C)c1ncc(CN2CCC[C@H](CS(C)(=O)=O)C2)cn1`, the “% Inhibition” value was 4% and the Z score was -0.68. `COc1ccc(-c2ccc(N3CCN(C(=O)CN(C[C@H]4CCCO4)C(=O)CC(C)C)CC3)nn2)c(OC)c1` was tested, and the “% Inhibition” value was -8% and the Z score was 0.76. In the case of `Clc1ccc(Cl)c(-c2ccc(CNCc3ccc4c(c3)OCO4)o2)c1`, the “% Inhibition” value is reported as -10% and the Z score is reported as 1.46. `O=C(c1cccc(Cl)c1)N1C[C@@H]2CN(CC3CCC3)C[C@]2(C(=O)O)C1` was tested, and the “% Inhibition” value was -7% and the Z score was 1.06. In the case of `Cc1ccc(C)c(C(=O)NC(C)(C)C)c1`, the “% Inhibition” value is reported as -5% and the Z score is reported as 0.57. In the case of `CCCc1noc(CN2C(=O)[C@@H]3CCCN3C2=O)n1`, the “% Inhibition” value is reported as 0% and the Z score is reported as 0.01. In the case of `CCCOc1c(Cl)cc(CN2CC[C@H](c3cnn(C)c3)C2)cc1OCC`, the “% Inhibition” value is reported as 2% and the Z score is reported as -0.22. `CCCCc1c(C)[nH]c2nc(N(Cc3cccc(OC)c3)C(=O)c3ccc(C)cc3)nn2c1=O` was tested, and the “% Inhibition” value was 9% and the Z score was -1.13. In the case of `Cc1cnc(=O)n(CC(=O)N2CCN(c3ccccc3F)CC2)c1`, the “% Inhibition” value is reported as -1% and the Z score is reported as 0.07. With `Cc1nc(C)c(C(=O)N2C[C@H]3CN(Cc4ccccc4)C[C@@]3(CN(C)C)C2)s1` the “% Inhibition” value was -12% and the Z score was 1.62. For `CCN(CCCCO)C(=O)Nc1ccc(C)c(OC)c1`, the “% Inhibition” value was -2% and the Z score was 0.2. With `CN(C)c1ccc(NC(=O)N(Cc2ccco2)C[C@H]2CCCO2)cn1` the “% Inhibition” value was -3% and the Z score was 0.51. With `COc1ccc(C(=O)N2C[C@@H]3CC[C@H]2CN(Cc2ccccn2)C3)o1` the “% Inhibition” value was 8% and the Z score was -1.51. For `O=C(O)C(c1cccc(Cl)c1)N1CCC(Cc2nccs2)C1` (stereo unspecified), the “% Inhibition” value was -1% and the Z score was 0.1. With `CCN(C)c1ccccc1CNC(=O)COCc1nc(C)no1` the “% Inhibition” value was -1% and the Z score was 0.09. In the case of `O=C(c1cccc(S(=O)(=O)N2CCCC2)c1)n1nnc2ccccc21`, the “% Inhibition” value is reported as -9% and the Z score is reported as 1. For `O=C(c1cc(Cl)c2c(c1)OCCCO2)N(C[C@H]1CCOC1)c1ccccc1`, the “% Inhibition” value was -5% and the Z score was 0.62. In the case of `Cc1ccc(C(=O)N2CCC(N3CCCCC3)CC2)c(C2CCN(C(=O)Nc3cccc(Cl)c3)CC2)n1`, the “% Inhibition” value is reported as -1% and the Z score is reported as 0.12. For `CCN1CCN(S(=O)(=O)c2ccc(C)cc2C)c2cccnc21`, the “% Inhibition” value was -11% and the Z score was 1.31. In the case of `Cc1cc(C)cc(NC(=O)N2CCC(OC3CCN(S(C)(=O)=O)CC3)CC2)c1`, the “% Inhibition” value is reported as -9% and the Z score is reported as 1.08. `O=C(CCS(=O)(=O)c1ccccc1)N1C[C@H](O)[C@@H](F)C1` was tested, and the “% Inhibition” value was -12% and the Z score was 1.35. `CN(C)C[C@@H]1[C@H]2CN(C(=O)c3cc4ccccc4s3)C[C@@H]12` was tested, and the “% Inhibition” value was -2% and the Z score was 0.29. With `COC1CC(NCc2cc(C)no2)C12CCC2` (stereo unspecified) the “% Inhibition” value was -1% and the Z score was 0.11. With `Cc1cc(N2C[C@H](OC(C)C)[C@@H](O)C2)nc(N)n1` the “% Inhibition” value was 11% and the Z score was -1.81. With `Cc1nn(C)c(C)c1CC(=O)Nc1ncccc1O` the “% Inhibition” value was -8% and the Z score was 1.43. With `O=S(=O)(CC1CCCC1)NCCCN1CCCC[C@@H]1CO` the “% Inhibition” value was -12% and the Z score was 1.13. In the case of `Cc1coc(C(=O)N2CCC[C@H](NCc3ccccc3)C2)c1C`, the “% Inhibition” value is reported as 1% and the Z score is reported as -0.2. With `O=C1c2ccccc2C(=O)N1C1CCC(N[C@H]2CCOC3(CCCC3)C2)CC1` (stereo partly specified) the “% Inhibition” value was -9% and the Z score was 1.52. With `COc1cc(OC)cc(C(=O)N2CC[C@@]3(CCCN(Cc4[nH]cnc4C)C3)C2)c1` the “% Inhibition” value was -2% and the Z score was 0.33. With `CC(C)c1nccc(N2CCC[C@H](n3cc(CO)nn3)C2)n1` the “% Inhibition” value was -11% and the Z score was 1.79. `Cc1csc(C2(NC(=O)CCc3cnn(C)c3)CCCCCC2)n1` was tested, and the “% Inhibition” value was 13% and the Z score was -1.7. In the case of `CC(C)OC1(C(=O)N2C[C@@H]3OCCN(C)[C@@H]3C2)CCOC1` (stereo partly specified), the “% Inhibition” value is reported as -36% and the Z score is reported as 4.22. With `N#CCN(CC#N)C(=O)Cc1c(F)cccc1Cl` the “% Inhibition” value was -6% and the Z score was 1.15. For `Cc1c(Cl)cccc1NC(=O)C(C)N1CCC(C2(C)NC(=O)NC2=O)CC1` (stereo unspecified), the “% Inhibition” value was -4% and the Z score was 0.49. `Fc1ccccc1-c1cc(NCCCn2cncn2)n2nccc2n1` was tested, and the “% Inhibition” value was -5% and the Z score was 0.88. For `COc1cc(O)ccc1[C@H]1Nc2ccccc2-n2c(-c3ccccc3)c3c(=O)n(C)c(=O)n(C)c3c21`, the “% Inhibition” value was 4% and the Z score was -0.71. `Cc1ccc(CC2(CCC(=O)N3CCCC(C(=O)c4ccccc4)C3)CCC(=O)N2)cc1` (stereo unspecified) was tested, and the “% Inhibition” value was 14% and the Z score was -1.82. With `CCCCNC(=O)Cc1noc(CCCOc2cccc(C)c2)n1` the “% Inhibition” value was -18% and the Z score was 2.79. For `COc1cccc2c1CN(Cc1n[nH]c3c1COCC3)CC2`, the “% Inhibition” value was 0% and the Z score was 0.03. `CCc1noc(CCNC(=O)N(C)CCCN2CCCCCC2)n1` was tested, and the “% Inhibition” value was 10% and the Z score was -1.4. `CO[C@H]1CCCOC12CCN(C(=O)c1cn3ccccc3n1)CC2` was tested, and the “% Inhibition” value was -16% and the Z score was 1.62. For `Cc1nnnn1CCc1ncnn1Cc1c(F)cccc1Cl`, the “% Inhibition” value was -11% and the Z score was 1.96. For `CC[C@@H](CO)NC(=O)NC1CCOC(C)C1` (stereo partly specified), the “% Inhibition” value was 2% and the Z score was -0.23. In the case of `CN(C)c1nc(CN[C@@H](Cc2ccccc2)c2ccccc2)ns1`, the “% Inhibition” value is reported as -6% and the Z score is reported as 0.72. `Cc1ccc(-n2nc(C)c(CC(=O)N3CCN(c4cccc(C)c4C)CC3)c2C)cc1C` was tested, and the “% Inhibition” value was -11% and the Z score was 1.37. In the case of `O=C(CCc1ccccc1)N1CC(Oc2nccs2)C1`, the “% Inhibition” value is reported as -21% and the Z score is reported as 3.65. In the case of `CCOC(=O)c1sc2nc(-c3cccc(Cl)c3)c(NCc3ccc(C)cc3)n2c1C`, the “% Inhibition” value is reported as 8% and the Z score is reported as -0.85. `CN(CCCCN1CCOCC1)C(=O)c1ccc(-c2ccncc2)cc1` was tested, and the “% Inhibition” value was -1% and the Z score was 0.11. With `CN1Cc2ccccc2C[C@H]1C(=O)NCc1ccc(S(N)(=O)=O)cc1` the “% Inhibition” value was -12% and the Z score was 1.58. For `COCC1(NC(=O)[C@@H](N)CC2CCCCC2)CCCC1`, the “% Inhibition” value was 0% and the Z score was -0.03. With `CCn1nc(C)c(C(=O)NC(C)(C)C2CCC2)n1` the “% Inhibition” value was -7% and the Z score was 1.47. `COc1cc(C(F)(F)F)nc(N2CCCC(=O)[C@@H]2C)n1` was tested, and the “% Inhibition” value was -10% and the Z score was 1.17. `COc1ccnc([C@H](C)NCc2scnc2C)c1` was tested, and the “% Inhibition” value was 0% and the Z score was -0.04. With `CCCCN(Cc1cccn1Cc1ccc(Br)cc1)C(=O)CN(CCC(C)C)C(=O)c1ccc2c(c1)OCO2` the “% Inhibition” value was -5% and the Z score was 0.75. For `COc1ccc(OC)c(S(=O)(=O)N2CC[C@@H]3COCCN(Cc4ccccc4)[C@@H]3C2)c1`, the “% Inhibition” value was -11% and the Z score was 1.45. With `O=C(NCc1ccc(F)cc1)c1n[nH]c2c1CCCC2` the “% Inhibition” value was 32% and the Z score was -3.62.
